The source of these data is paper PMC10668032.

The other results are listed elsewhere or left out. At the low end of the ranking, values are background and their order means little.

In this assay the target is SIX1 homeodomain (reference allele) (UniProt Q15475). Nature of the assay: universal protein binding microarray. Conditions: Universal all-10-mer PBM (8x60K, AMADID 030236), 300 nM GST-tagged protein, Alexa Fluor 488 anti-GST; buffer, salt, pH and temperature not stated; high values mean tight binding; most listed sequences are background and not binding sites; double strand, one strand shown.
Consider CACTGCAG, for which the binding signal is -0.204 E-score. Under GCCATACA stands -0.13 E-score; under CCATGCAA, 0.00377 E-score; under AAACTGGC, -0.0878 E-score. Consider ATGACAAA, for which the binding signal was -0.205 E-score. Under AAATCTTA stands -0.133 E-score; under AAAGTCGC, -0.14 E-score; under CCTGCGCA, -0.109 E-score.

For AAAGCCAA, the binding signal is -0.322 E-score. Under CGCCCATC stands 0.0415 E-score; under ATTGTCAA, 0.0497 E-score; under AATGGACC, -0.0751 E-score. Next, ATGAGGAC: 0.103 E-score; GAATGCAA: -0.197 E-score; ACTCATCT: -0.0072 E-score.

With AGCTTCAG, the binding signal was -0.183 E-score. As for GGGCACTA, the binding signal is -0.111 E-score. Next, CCCAACCA: 0.0273 E-score; ATCGGGCG: 0.107 E-score; GATAGTAC: 0.212 E-score. Next, CCCGCAGC: -0.0795 E-score. Under AAGTAGGT stands -0.187 E-score; under CACTGGGC, -0.0902 E-score; under ACCGAGCC, -0.0194 E-score. For the sequence AGAACAAG, the binding signal was 0.0252 E-score. AGCCCACC: the binding signal is -0.154 E-score. With ACCATTGG, the binding signal is 0.122 E-score.

Take AGAGCACG: the binding signal was -0.0729 E-score.

As for AGCAACAG, the binding signal was -0.15 E-score.

On to GAGTTATA, for which the binding signal came to 0.0269 E-score.

With TCTAGAGA, the binding signal is -0.0495 E-score.

Consider ATATCTAC, for which the binding signal turned out to be 0.387 E-score. Under CGGCCGTC stands -0.287 E-score. In the case of AGCGGAAG, the binding signal is -0.0825 E-score. Next, AATACAGA: -0.0309 E-score.

On to AGACGGTG, for which the binding signal was determined as 0.118 E-score. With CCTCTAAG, the binding signal was found to be 0.0606 E-score. As to TAAGAGTA, the binding signal was found to be 0.0505 E-score. Under GAAAGGCA stands -0.122 E-score; under ACAACAAC, -0.229 E-score. AACATACA: the binding signal was 0.0358 E-score. Under AGAGTAAG stands -0.16 E-score.

With CGACAACA, the binding signal is -0.0476 E-score. Next, ACGTCACA: -0.208 E-score; ACTGTATA: 0.239 E-score; CAGGAAAG: -0.135 E-score.

With ATTGAGTA, the binding signal was found to be 0.192 E-score.

In the case of ATTCCTAG, the binding signal is -0.0102 E-score. Next, ACAGCTCA: -0.2 E-score.

AAGAGTGT: the binding signal is -0.0291 E-score. Under GATTTTCA stands -0.216 E-score; under CAGCGCAC, -0.256 E-score; under ACTTTAAG, -0.0726 E-score. Next, ACTCTTGC: -0.0799 E-score. Under CCAGAAGG stands 0.0442 E-score. Regarding CTGGCAGA, the binding signal is -0.0837 E-score. Take GTCCGTCA: the binding signal is -0.299 E-score. Under ACCGATTG stands 0.00258 E-score; under ACTCAAGT, -0.111 E-score. Under CGATCGCA stands 0.284 E-score; under ACTCCGCG, 0.152 E-score; under CTGGCGAC, -0.252 E-score.

With AGTGGAGC, the binding signal was -0.0928 E-score. Next, CCAAACAA: -0.0894 E-score; TTCTAAAA: -0.112 E-score. Under GGGTAATA stands 0.311 E-score; under ATATCCAC, 0.395 E-score. Next, ATTTCTTG: -0.273 E-score; AACAGCAC: -0.244 E-score.

As for AGCTACTC, the binding signal is -0.141 E-score. Under ACTCCCGG stands 0.0728 E-score; under AATCTGCA, 0.0208 E-score. Under AGATCGCA stands 0.281 E-score; under CGGTCATA, 0.0521 E-score; under AGCCTAAG, -0.142 E-score. Under CCGCAACC stands -0.0441 E-score; under CGACCGTA, -0.0336 E-score; under AAACGGGC, -0.085 E-score.

Turning to CTCGATCA, the binding signal was 0.105 E-score.

With AGATATTG, the binding signal was 0.311 E-score. Under AAAATAGG stands -0.112 E-score; under GGGGGTGA, -0.0422 E-score.

Regarding AAATCGAC, the binding signal is -0.354 E-score. Under AAAAACGC stands -0.146 E-score; under ACAGCGCG, -0.345 E-score; under TGCGACCA, -0.00851 E-score.

As to AGTGAGAA, the binding signal is 0.134 E-score. Under AAGAACCC stands -0.113 E-score; under GACCTTCC, -0.259 E-score. Next, CACTAGCG: -0.0772 E-score; ACTCGGGC: -0.00516 E-score. Under GAACAAAC stands 0.00737 E-score. For CATCCATG, the binding signal amounted to 0.139 E-score. Next, AACTGGGC: -0.357 E-score.

Take GTAATCAC: the binding signal was -0.0264 E-score. Next, GTCTTTGA: -0.146 E-score; CACTCTTC: -0.168 E-score; ATAAGGAT: 0.272 E-score. Under CGAGAAAG stands -0.149 E-score; under CCTTCATC, -0.0546 E-score; under CATGATGC, 0.0998 E-score.

Consider GCGACCGC, for which the binding signal is -0.188 E-score.

For GCTGTTGA, the binding signal is -0.0429 E-score. Under AAGTTGCC stands -0.15 E-score; under AAAGTTAT, 0.0113 E-score. Under AATAAACC stands -0.0199 E-score; under GCCCTTAC, -0.344 E-score; under AGGCTGAC, -0.167 E-score. Under CCCGTCAC stands 0.00742 E-score; under CACCGGTA, 0.28 E-score; under ACGTCGTG, -0.0388 E-score. For the sequence AGTCACAT, the binding signal was -0.109 E-score. AGATATCA: the binding signal was determined as 0.451 E-score. Next, CCCCGGCG: 0.106 E-score. Next, TACTATCA: 0.325 E-score; TACTAAAA: -0.0304 E-score. Under AGCCCCGC stands 0.0083 E-score; under AGTGACAT, -0.277 E-score. Turning to AGCTGTGC, the binding signal was -0.0631 E-score. Under CTGGTGAC stands 0.0038 E-score. Under CCATCGAA stands 0.0149 E-score; under CATCTTCA, -0.115 E-score; under AGCGAGAA, -0.101 E-score. Take ACGGAACT: the binding signal is -0.135 E-score. Next, CGCTATCC: 0.339 E-score; CAACAGAA: -0.159 E-score.

Take GTGGGCAA: the binding signal was -0.15 E-score.

Consider ACCCGACT, for which the binding signal amounted to 0.0403 E-score.

With TGCAATAA, the binding signal is -0.0872 E-score. Next, CACGCCCC: 0.0548 E-score; CAGAGTGG: -0.0964 E-score; CGGACACG: 0.06 E-score. Under GTAACAGA stands -0.0577 E-score. Next, CTACATAA: -0.149 E-score; AAGTAGCT: -0.207 E-score; CATGCACC: -0.201 E-score.

Regarding TATTCGCA, the binding signal was determined as 0.115 E-score.

In the case of ACATCTCA, the binding signal turned out to be 0.194 E-score. Under CACAATAG stands 0.00042 E-score.

On to ATTAATGG, for which the binding signal was 0.102 E-score. Under GTAACCAC stands -0.131 E-score; under ACCGGAGA, 0.201 E-score. Under CCGGTACA stands 0.0895 E-score; under AGTGGCGA, 0.13 E-score; under CCTTAGTC, -0.169 E-score. Next, ACCCCTTA: 0.0658 E-score; GTCATGGA: -0.0559 E-score; AGCTGAAT: -0.139 E-score. In the case of CGCCGGAC, the binding signal is -0.165 E-score. Under ACCGAACG stands -0.129 E-score; under CGACGGGA, 0.00103 E-score; under CGAACGCG, 0.0187 E-score. As for AATTCTGC, the binding signal was -0.165 E-score. Next, GAAAACTC: -0.318 E-score; GCACAACC: -0.293 E-score.

With AACGAGCC, the binding signal is -0.0327 E-score.

On to ATCAACTA, for which the binding signal is 0.115 E-score. As for CAGTTTAG, the binding signal was -0.145 E-score. On to CCTAGAAC, for which the binding signal is -0.0964 E-score. CGGGGGAA: the binding signal is -0.139 E-score. Under GAGGTAGC stands -0.117 E-score. Under GCACGACA stands 0.0954 E-score. As for GTTACGGA, the binding signal was -0.137 E-score. Under AGAGTTGG stands -0.186 E-score; under CGAACGTC, -0.253 E-score; under CTGCACCA, -0.0478 E-score.

With ATAGTGTC, the binding signal was 0.283 E-score. Next, CCAGAGTA: 0.126 E-score. Under AGGTGCAA stands -0.0425 E-score.

For AGATACGC, the binding signal was 0.349 E-score. Under AACTCTAG stands -0.0794 E-score; under ATGAGGTG, 0.107 E-score. As to CACTGGAG, the binding signal was 0.025 E-score. Under ACACACAT stands -0.0254 E-score; under CGATTACC, -0.052 E-score. For ACTTGGAG, the binding signal was found to be 0.0631 E-score. Under GGCAAAAC stands -0.283 E-score; under GGAAAGGA, 0.0876 E-score; under CTCAGGTC, -0.169 E-score. Next, GGTGGCAC: -0.163 E-score. Under CTACCCTC stands 0.0438 E-score; under ACGTTAGC, -0.122 E-score; under AAGGTTGC, -0.118 E-score. Consider TGCAGGAA, for which the binding signal was -0.101 E-score. Under CTCATCTA stands 0.0672 E-score; under CAGAGACC, -0.116 E-score. Under TGGTACAA stands -0.258 E-score; under CTAGCTTA, -0.199 E-score. Consider CACCCCAA, for which the binding signal came out at 0.111 E-score. Under GGTTCAAC stands -0.00809 E-score; under ACGTTCAC, -0.238 E-score; under CCGTTCCC, -0.0549 E-score. Under CTGTGTAA stands -0.106 E-score; under CACGCTCA, -0.0893 E-score. Under AGCATCCA stands -0.129 E-score; under CTTAGACC, -0.133 E-score; under AGCGTACT, -0.049 E-score. Turning to AAAGAGCA, the binding signal is -0.0405 E-score. Next, CCTCGCCC: -0.0825 E-score; CGCCTCAA: -0.23 E-score; GCAGCTGA: 6e-05 E-score.

With AATATCTG, the binding signal turned out to be 0.188 E-score. Next, CCGGCTAA: 0.178 E-score; TGGGCGAA: -0.0151 E-score; ACAAATGG: -0.0554 E-score. Next, AAGACAAG: 0.0825 E-score; ACCTACCC: 0.0871 E-score. Under AAAGGTTC stands 0.0303 E-score; under TAGGCCCA, -0.333 E-score; under GGTAAGTA, 0.106 E-score. Take AGCAATTA: the binding signal is -0.123 E-score. Next, ACAATTGA: 0.136 E-score; AGTCTCTG: -0.0615 E-score; ACACAGTC: -0.0881 E-score. Next, GCACCTAA: -0.0277 E-score; CAGTAGAC: 0.0331 E-score. Next, ACCTCGCT: -0.092 E-score; TATCCTAA: 0.238 E-score; AACTTAGG: -0.278 E-score.
